Drawing on PubChem BioAssay AID463173 (ICCB-Longwood Screening Facility, Harvard Medical School, 2010), this text covers survival for 57 compounds.

Each structure is given as a SMILES string. About 1,700 (3.3%) of roughly 52,000 compounds were called active. Rule as the data show it: active = survival mostly below about 52% (no sharp cut-off); inactive = mostly above about 56%. The list shows a part of the results.

The test concerns Wild type. The experiment in a line: S. aureus survival, RN4220 and DeltatarO strains – OD600, teichoic acid synthesis inhibitors, primary screen (AID 463173). To be noted: S. aureus RN4220 wild type/DeltatarO growth, OD600, 18 h, stronger effect = lower value, screened at 18.75 µg/mL (by protocol).
`CC(=O)N1CCN(S(=O)(=O)c2ccc(C)cc2)C1C(C)C` (configuration not stated): the survival is inactive: 113%.
`CCC(Cn1nnc2ccccc2c1=O)NC(=O)Nc1cc(C)cc(C)c1` (configuration not stated): the survival is inactive: 86%.
Consider `CC(C)C(=O)Nc1nnc2n1CCS2`, for which the survival is inactive: 75%.
As to `Cc1nc(N2CCCC2)c2c(C(=O)N3CCN(c4ccccc4)CC3)c(C)oc2n1`, the survival is inactive: 71%.
As to `Cc1cc2c(n1-c1ccc(C(=O)NCCc3ccc(Cl)cc3)cc1)CCCC2`, the survival is inactive: 146%.
`CC(C)c1nn2c(=O)cc(COC(=O)c3cccc(NC(=O)COc4ccc(F)cc4)c3)nc2s1`: the survival was inactive: 72%.
With `Cc1ccc(C)c(CSc2nnc3[nH]c(=O)cc(C)n23)c1`, the survival is inactive: 76%.
With `Cc1ccc(S(=O)(=O)n2nc(C)c(S(=O)(=O)N3CCCCCC3)c2C)cc1`, the survival is inactive: 129%.
With `COc1ccc(C)cc1NC(=O)c1noc2c1CSc1ccccc1-2`, the survival was inactive: 86%.
For `COc1ccc(C2C(C(=O)Nc3ccccc3)=C(C)Nc3c(C(=O)Nc4ccccc4)cnn32)cc1` (configuration not stated), the survival is inactive: 134%.
For the compound `CS(=O)(=O)N1CCc2cc(C(=O)N3CCN(c4cccc(Cl)c4)CC3)ccc21`, the survival was inactive: 91%.
On to `O=C(CN1CCC(N2CCCCC2)CC1)NC12CC3CC(CC(C3)C1)C2`, for which the survival was inactive: 105%.
Consider `COCCNC(=O)CCC(=O)NNc1nc2ccccc2c2nc(C)nn12`, for which the survival was inactive: 87%.
Regarding `CCOc1ccccc1NC(=O)c1c(NC(=O)COc2ccc(Cl)cc2)sc2c1CCCCC2`, the survival was inactive: 75%.
With `Cc1ccc(C)c(CSc2nc(-c3ccccc3F)nc3c2Cc2c(CO)cnc(C)c2O3)c1` the figure was inactive: 114%; with `CCC1CC(/C(C)=N/NC(N)=O)OC1=O` (configuration not stated), inactive: 98%.
In the case of `Cc1ccc(C)c(N2CCN(C(=O)c3cn(CC(C)C)c(=O)c4c3c3ccccc3n4C)CC2)c1`, the survival is active: 17%.
With `COCCCNc1nc(NCc2ccccc2OC)c2cnn(C)c2n1`, the survival is inactive: 136%.
With `COc1ccc(Br)cc1C1C(C(=O)Nc2ccc(C)cc2C)=C(C)Nc2ncnn21` (configuration not stated) the figure was inactive: 64%; with `Cc1ccc(NC(=O)C2(c3cccs3)CCOCC2)cc1Cl`, inactive: 75%; with `COc1ccc(NC(=O)Cn2c(=O)n(-c3cc(C)cc(C)c3)c(=O)c3oc4ccccc4c32)cc1OC`, inactive: 69%.
Turning to `O=C(NCCc1ccccc1)c1nn(-c2ccccc2F)nc1CO`, the survival is inactive: 90%.
As to `Cc1ccc2c(CNCCc3ccccc3)c(C(=O)O)n(Cc3ccccc3C)c2c1`, the survival is active: 1%.
Regarding `COc1cc(CN2CCN(C3CCCCCC3)CC2)cc(OC)c1OC`, the survival is inactive: 104%.
On to `Cc1ccccc1N1CCN(S(=O)(=O)c2nnc(NC(=O)c3ccc(C(C)C)cc3)s2)CC1`, for which the survival was inactive: 71%.
As to `COc1cc(NC(=O)c2cc(C3CC3)nc3c2c(C)nn3-c2ccccc2)cc(OC)c1`, the survival is inactive: 81%.
On to `COC(=O)Cn1c(=O)c2cccn2c2ccc(F)cc21`, for which the survival is inactive: 83%.
`Cc1cccc(N(C)c2nc3ccccc3c3nnc(C)n23)c1`: the survival is inactive: 128%.
Then `CCOc1ccc(C(=O)Cn2c(=O)n3nc(CCn4nc(C)cc4C)nc3c3cc(OC)c(OC)cc32)cc1`, with inactive: 120%; and `CCS(=O)(=O)N1CCCC(C(=O)NCCOC)C1` (configuration not stated), with inactive: 68%.
For `Cc1ccc(NC(=O)CSc2nnc(-c3ccc([N+](=O)[O-])cc3)o2)c(C)c1`, the survival is inactive: 90%.
As for `Cc1ccc(C(=O)c2cn(CC(=O)Nc3ccc(C(C)C)cc3)c3nc(C)ccc3c2=O)cc1`, the survival was inactive: 66%.
Then `CCCCCn1c(NCc2ccc(OC)cc2)nc2ccccc21`, with active: -2%; and `CCOc1ccc(-c2nc3c(c(SCC(=O)Nc4ccccc4C)n2)Cc2ccccc2O3)cc1`, with inactive: 126%; and `Cc1cc(C)n(-c2nc3ccccc3nc2Nc2ccc(N(C)C)cc2)n1`, with active: 2%.
Then `CCC(C(=O)NC1CCCC1)N(C(=O)Cn1nnc(-c2ccc(C)cc2)n1)c1ccc2c(c1)OCCO2` (configuration not stated), with inactive: 108%; and `COc1ccccc1OC(C)C(=O)Nc1cccc(-c2nc3ccccc3s2)c1` (configuration not stated), with inactive: 29%; and `COc1ccc(-n2nc(C(=O)Nc3ccccn3)c3c4ccccc4n(C)c3c2=O)cc1`, with inactive: 72%.
With `CCOC(=O)c1ccc(NC(=O)c2cnc3c(-c4ccc(F)cc4)c(C)nn3c2C)cc1` the figure was inactive: 120%; with `Cc1cc(C)cc(NC(=O)Cn2c(-c3cncs3)nc3ccccc32)c1`, inactive: 63%.
For `Cc1ccccc1NC(=O)CC(NCc1cccnc1)C(=O)O` (configuration not stated), the survival was inactive: 89%.
Then `CCCCN(C(=O)c1cc(OC)c(OC)c(OC)c1)C1=CC2CCC(C1)N2C` (configuration not stated), with inactive: 115%; and `CCCCN(C)C(=O)C1CCN(Cc2ccc(OCc3ccccc3)c(OC)c2)CC1`, with inactive: 108%.
Consider `Cc1ccc(Cl)cc1NC(=O)C1CCN(c2nnc(C)c3c(C)n(-c4ccccc4)nc23)CC1`, for which the survival is inactive: 71%.
With `CCc1ccc(CNC(=O)c2cnc3sc(N4CCCC4)nn3c2=O)cc1` the figure was inactive: 71%; with `Cc1ccccc1CNC(=O)c1ccc2c(c1)c(C)c(C)n2C`, inactive: 58%; with `CN(C)c1ccc(CNC(=O)c2ccc(Cn3c(SCc4ccccc4)nc4cccnc43)cc2)cc1`, inactive: 85%.
`Cc1cc(C)c(Cn2c3ccccc3c3cnn(CC(=O)NCc4cccs4)c(=O)c32)c(C)c1`: the survival was inactive: 76%.
Turning to `Cc1ccccc1Cn1nnc2c(=O)[nH]c(C3CCN(C(=O)c4ccc(F)cc4)CC3)nc21`, the survival is inactive: 74%.
Take `CCCNC(=S)N1CCC(NC(=O)Nc2ccc(C)cc2)CC1`: the survival is inactive: 102%.
On to `CCOc1ccc(CN2CCN(C(=O)c3ccco3)CC2)cc1`, for which the survival is inactive: 103%.
As to `COc1ccc(-c2ccc3c(N)c(C(=O)c4ccc(OC)c(OC)c4)sc3n2)cc1`, the survival is inactive: 86%.
Then `CCC(C)NC(=O)CCCN1C(=O)CCn2nc(-c3cccn3C)cc21` (configuration not stated), with inactive: 100%; and `CCc1ccc(-n2c(=O)c3c4c(sc3n(CC(=O)c3ccc(F)cc3)c2=O)CCC4)cc1`, with inactive: 85%.
`COc1ccc(CNC(=O)c2ccc(-c3nc(CSc4ccccc4)c(C)o3)cc2)cc1OC`: the survival was inactive: 77%.
On to `CCCc1cc(=O)[nH]c(SCC(=O)N2CCN(c3ccccc3)CC2)n1`, for which the survival was inactive: 108%.
For the compound `COc1ccc(CNC(=O)CSCc2nc(-c3ccccc3C)oc2C)cc1`, the survival is inactive: 75%.
